# Results taken from PubChem BioAssay AID504937 (National Center for Advancing Translational Sciences (NCATS), 2011).
# Hit rate of the full screen: of about 340,000 compounds, about 20 (0.006%) were called active. This list was built around the results that the source calls inconclusive (neither active nor inactive); the mix of calls is not that of the screen. Calls follow the shape of the dose curve; as a rule, active = well fitted inhibition curve with a large enough effect; inconclusive = small, poorly fitted or top-dose-only effect; inactive = no such curve, though single readings can be large or run the other way. Potencies of inconclusive entries are doubtful fits and often do not repeat.
# Biological target: Sphingomyelin phosphodiesterase (Homo sapiens) (UniProt P17405)
# Chain of UniProt P17405 (P17405 whole entry, looked up): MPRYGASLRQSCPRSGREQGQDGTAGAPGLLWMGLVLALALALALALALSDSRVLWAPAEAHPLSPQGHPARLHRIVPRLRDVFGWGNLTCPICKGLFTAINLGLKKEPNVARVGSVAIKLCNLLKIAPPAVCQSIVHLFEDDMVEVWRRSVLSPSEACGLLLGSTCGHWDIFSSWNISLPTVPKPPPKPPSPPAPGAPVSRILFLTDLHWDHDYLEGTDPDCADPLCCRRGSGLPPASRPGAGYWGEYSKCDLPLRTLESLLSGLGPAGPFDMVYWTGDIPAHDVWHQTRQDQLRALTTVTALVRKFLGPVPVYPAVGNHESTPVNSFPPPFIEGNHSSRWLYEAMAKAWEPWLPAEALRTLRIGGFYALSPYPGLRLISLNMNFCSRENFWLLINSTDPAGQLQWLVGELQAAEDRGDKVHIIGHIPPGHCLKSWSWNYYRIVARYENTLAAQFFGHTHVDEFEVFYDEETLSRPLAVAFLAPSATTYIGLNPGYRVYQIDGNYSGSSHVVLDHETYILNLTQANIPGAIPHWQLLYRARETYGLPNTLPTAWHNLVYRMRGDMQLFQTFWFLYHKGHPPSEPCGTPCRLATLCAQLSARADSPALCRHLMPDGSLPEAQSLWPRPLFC
# Test: Inhibitors of Secretory Acid Sphingomyelinase (S-ASM): qHTS
# Conditions: placental ASM, HMU-PC fluorogenic substrate (series up to 57.5 µM), 60 min
# Description: Atherosclerosis is the underlying process for cardiovascular disease and thus is a major contributor to disease burden in the population. […] Thus, selective small molecule inhibitors of S-ASM should block LDL modification and reduce aortic LDL retention and may serve as new agents for the treatment of atherosclerosis. In a collaboration between National Heart, Lung, and Blood Institute and the NCGC a high-throughput amenable screen was developed to identify potent and selective small molecule inhibitors of S-ASM. This enzymatic, fluorescent screen uses an ASM enzyme preparation derived from human placenta and was tested against the NIH Molecular Libraries Small Molecule Repository (MLSMR). NIH Chemical Genomics Center [NCGC] NIH Molecular Libraries Probe Centers Network [MLPCN] MLPCN Grant: MH093173-01 Assay Submitter (PI): Alan Remaley, National Heart, Lung, and Blood Institute and Wei Zhen, NIH Chemical Genomics Center
# Two microliters of ASM enzyme (1:150 dilution from stock) are dispensed in 1536-well plate. 23 nL of compound and control are pinned into assay plate using the Kalypsys pintool. The plates are then incubated for 10 minutes at ambient room temperature. Then, 2 uL of the flurogenic substrate, HMU-PC0, (9 uM final) are added to the plate. An incubation for 60 minutes takes place at 37 masculineC. After that, 4 uL of stop solution is added to raise the pH to 10 to end the kinetic reaction. Plate is read on ViewLux, with detection set at Ex = 386 (10) nm and Em = 447 (10) nm.
# Potency is read from the fitted curve at half-maximal effect; tags tell the direction and shape of the fitted curve.
row,SMILES,Potency
1,O=C(CSc1nc2ccccc2o1)Nc1cc(C(F)(F)F)ccc1N1CCOCC1,"inconclusive: 1000 µM [inhibitor, partial curve, poor fit]"
2,C/C(=N\Nc1cc(-c2ccccc2)nc(-c2ccccc2)n1)c1ccc(O)c(C)c1,inactive
3,O=C(Nc1ccc(F)cc1)N1CCC(c2nc3c(nnn3Cc3ccccc3Cl)c(=O)[nH]2)CC1,"inconclusive: 89.1 µM [inhibitor, partial curve]"
4,COc1ccc(NC(=O)c2ccc(Cl)nc2)cc1S(=O)(=O)N1CCCCC1,inactive
5,COc1ccccc1N1C(=O)c2cccc3c(N(C)CCO)ccc(c23)C1=O,inactive
6,C=CCn1c(SCc2ccc(C(=O)NCCO)cc2)nc2sc(C)c(C)c2c1=O,inactive
7,O=C(O)c1cccc(-n2sc3ccccc3c2=O)c1,inactive
8,CC(Sc1nnc(NC2CCCCC2)s1)C(=O)Nc1ccc2c(c1)C(=O)c1ccccc1C2=O (stereo unspecified),"inconclusive: 1260 µM [inhibitor, partial curve, poor fit]"
9,CC(C)c1ccc(NC(=O)C2CC(=O)Nc3nc4ccccc4n32)cc1 (stereo unspecified),inactive
10,CCC1COC(c2cccn2Cc2ccccc2Cl)=N1 (stereo unspecified),inactive
11,COc1ccc(/C=N/NC(=O)c2sccc2OCc2ccc(F)cc2)cc1OC,"inconclusive: 355 µM [inhibitor, partial curve, poor fit]"
12,O=C1C=C(c2ccc3ncccc3c2)C[C@@H](c2ccc(Cl)cc2)C1,"inconclusive: 112 µM [inhibitor, partial curve, poor fit]"
13,O=C(Nc1ccc(N2CCCC2)cc1)c1cc2ccccc2o1,inactive
14,Cc1ccc(/C=C2/Sc3ccc(C(=O)NCCN4CCOCC4)cc3NC2=O)cc1,"inconclusive: 112 µM [inhibitor, partial curve, poor fit]"
15,CC1(C)Cc2c(cnn2-c2ccccc2)C(=O)/C1=N\NC(=O)c1ccccc1O,"inconclusive: 112 µM [inhibitor, partial curve, poor fit]"
16,O=C(CC1C(=O)NCCN1C(=O)Nc1ccc(C(F)(F)F)cc1)Nc1ccc(F)cc1 (stereo unspecified),"inconclusive: 141 µM [inhibitor, partial curve]"
17,C/C(CCc1ccc2c(c1)OCO2)=N\NC(=O)c1ccccc1,inactive
18,COc1ccc2c(c1OC)C(=O)OC2Nc1nc(-c2cc3cc(Br)ccc3oc2=O)cs1 (stereo unspecified),inactive
19,Cc1ccc(Cl)cc1N1CCN(S(=O)(=O)c2ccc3[nH]c(=O)c(=O)[nH]c3c2)CC1,"inconclusive: 35.5 µM [inhibitor, single point]"
20,O=C1c2[nH]nc(-c3ccccc3O)c2C(c2cccc(Cl)c2)N1Cc1ccco1 (stereo unspecified),"inconclusive: 89.1 µM [inhibitor, single point]"
21,CCOC(=O)c1c(-c2ccc(C)cc2C)csc1NC(=O)CSc1nnnn1C,"inconclusive: 100 µM [inhibitor, partial curve, poor fit]"

row,SMILES,Potency
1,CC(C)N(C(=O)[C@H]1C[C@H](CC(=O)NCc2cccc(C(F)(F)F)c2)C(=O)N2CCc3c([nH]c4cc(-c5ccco5)ccc34)[C@]12C)C(C)C,"inconclusive: 70.8 µM [inhibitor, partial curve, poor fit]"
2,C[C@@H]1CN([C@H](C)CO)C(=O)c2cccc(NC(=O)Nc3ccc(F)cc3)c2O[C@H]1CN(C)C(=O)Nc1ccc(C(F)(F)F)cc1,"inconclusive: 100 µM [inhibitor, partial curve]"
3,N#CCCN1CCCc2cc(N=Nc3ccc(C(F)(F)F)cc3)ccc21,"inconclusive: 63.1 µM [inhibitor, partial curve, poor fit]"
4,CC1CCN(C2=NC(=O)/C(=C/c3ccccc3F)S2)CC1,inactive
5,O=C(/C=C/c1ccco1)NC(=S)Nc1cc(C(F)(F)F)ccc1N1CCOCC1,"inconclusive: 79.4 µM [inhibitor, single point]"
6,CCN(CC)CCNC(=O)c1ccc2c(c1NCCO)C(=O)c1ccccc1C2=O,"inconclusive: 282 µM [inhibitor, partial curve, poor fit]"
7,Cc1cccc(NC(=O)CSc2nc3c([nH]c4ccccc43)c(=O)n2C)c1,inactive
8,Cc1cccc(OCC(=O)NC(=S)Nc2ccc(S(=O)(=O)NC3CCCCC3)cc2)c1,"inconclusive: 355 µM [inhibitor, partial curve, poor fit]"
9,Cc1cccc([C@@H]2[C@@H]3C(=O)N(Cc4ccccc4)C(=O)[C@@H]3[C@]3(C)C(=O)N(c4ccc(Br)cc4)C(=O)N23)c1,"inconclusive: 100 µM [inhibitor, partial curve]"
10,O=C(COC(=O)/C=C/c1ccco1)Nc1ncc(C(F)(F)F)cc1Cl,inactive
11,Cc1ccc(C(=O)c2sc(Nc3ccccc3)c(C#N)c2N)cc1,"inconclusive: 79.4 µM [inhibitor, single point]"
12,COc1ccc(Nc2c([N+](=O)[O-])ccc3c2=NC2(CCCCC2)N=3)cc1,inactive
13,O=C(OC1CCOC1=O)c1cc(-c2ccc(Cl)cc2)nc2ccccc12 (stereo unspecified),"inconclusive: 708 µM [inhibitor, partial curve, poor fit]"
14,CC(=O)Nc1ccc(C(=O)Nc2nc(-c3ccccn3)cs2)cc1,inactive
15,CCN1C(=O)[C@H]2[C@@H](c3ccc(C)cc3)N3C(=O)N(c4ccc(OC)cc4)C(=O)[C@@]3(C)[C@H]2C1=O,inactive
16,COc1ccc(N2C(=O)C(CC(=O)Nc3ccccc3)N(Cc3ccccn3)C2=S)cc1 (stereo unspecified),"inconclusive: 100 µM [inhibitor, partial curve, poor fit]"
17,Oc1ccc(C[C@H]2CNC(=S)N2CC2CCCN2C[C@H](Cc2ccc(O)cc2)N2C[C@H](Cc3ccccc3)N(CC3CCCCCC3)C2=S)cc1 (stereo partly specified),"inconclusive: 70.8 µM [inhibitor, partial curve]"
18,Cc1ccc(C)c(N2CCN(S(=O)(=O)c3ccc4[nH]c(=O)c(=O)[nH]c4c3)CC2)c1,"inconclusive: 50.1 µM [inhibitor, single point]"
19,Cn1c(SCC(=O)Nc2ccc(Cl)cn2)nnc1C1CC1,inactive
20,O=C(COc1ccc2c(c1)C(=O)CC1(CCCCC1)O2)NCc1ccccc1,inactive
